# In all, about 110,000 compounds went through this assay and about 40 (0.04%) were called active. The inconclusive results got no clear call from the source; some entries with a clear call stand among them for comparison. Calls come from the whole dose curve; as a rule, active = well fitted curve in the direction sought with a large enough effect in the signal ratio (not every such curve was filed as active); inconclusive = small, poorly fitted or top-dose-only effect, or a change in a side signal; inactive = flat fitted curve, though single readings scatter; the % refers to the signal ratio. A potency beside an inconclusive call is a rough fit, not a confirmed value.
# Assay: IkB Signaling;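 for IkBa stabilization activation: 0% = basal untreated cells and 100% = reference inhibitor full response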
# Conditions: ABC-DLBCL IkBa-CBG/CBR dual luciferase ratio (green luciferase fused to IkBa over red control in OCI-Ly3 lymphoma cells), 4 h, scaled: untreated 0%
# Procedure, shortened: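 Curves were fitted separately to fusion (green), unfused (red) and ratio luminescence, then classed by r2, magnitude and activity. Cells: OCI-Ly3, 4 h compound plus doxycycline at 37C; 10 uM MG-132 defined full response.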
# [1] = IkBa stabilization activation: at 57.1 µM (top of the series), proteasome inhibitor 100% unless noted
# Potency is the fitted concentration of half-maximal effect.
smiles,measurement,setting,value
COc1ccc(N2CCN(C(=O)CSCc3nc(-c4ccccc4Cl)oc3C)CC2)cc1,IkBa stabilization activation,[1],inconclusive: 0.452% [signal inhibitor]
Cc1cccc(NC(=O)CSc2nc3c(c(=O)[nH]2)CN(Cc2ccc4c(c2)OCO4)CC3)c1C,IkBa stabilization activation,[1],inconclusive: 2.09% [signal inhibitor]
COc1cc2c(cc1NC(=O)CC1SC(N3CCCC3)=NC1=O)oc1ccccc12 (stereo unspecified),IkBa stabilization activation,[1],inconclusive: 1.12% [signal inhibitor]
COc1ccc(C)cc1NC(=O)CCN1CCCC1,IkBa stabilization activation,[1],inactive
O=C(NCc1cccc(F)c1)c1ccc(CS(=O)c2ccccc2Cl)o1 (stereo unspecified),IkBa stabilization activation,[1],inconclusive: -0.000397% [signal inhibitor]
CCOC(=O)N1CCc2c(sc3c2c(=O)n(Cc2ccccc2)c(=O)n3CC(=O)Nc2c(C)cccc2C)C1,IkBa stabilization activation,[1],inconclusive: -0.786% [signal inhibitor]
c1ccc(CSc2ncn(-c3ccccc3)n2)cc1,Potency,[1],"inconclusive: 31.6 µM [signal inhibitor, partial curve]"
C=CCSc1nnc2nc3c(nn12)c1cc(C)ccc1n3CC=C,IkBa stabilization activation,[1],inactive
Cc1cnc(C(=O)Nc2ccc(F)c(F)c2)cn1,IkBa stabilization activation,[1],inactive
COc1cccc(-c2cc(C(F)(F)F)nc(-n3nc(C)c(Br)c3C)n2)c1,Potency,[1],"inconclusive: 3.16 µM [signal inhibitor, single point]"
CC(=O)Nc1nonc1NC(C)=O,IkBa stabilization activation,[1],inactive
Nc1nc(N)c(S(=O)(=O)c2ccccc2)c(Nc2ccc(Br)cc2)n1,IkBa stabilization activation,[1],inconclusive: 10.1% [signal inhibitor]
c1cc2c(cc1Nc1nc(-c3ccc4c(c3)OCO4)cs1)OCCO2,IkBa stabilization activation,[1],inconclusive: 2.65% [signal inhibitor]
Cc1ccc(-n2c(SCc3ccccc3F)nc3[nH]ncc3c2=O)cc1C,IkBa stabilization activation,[1],inactive
Cc1cccc(NC(=O)C(=O)c2cc(C)n(-c3ccccc3)c2C)c1C,IkBa stabilization activation,[1],inconclusive: 0.427% [signal inhibitor]
O=C(Nc1cccc(-c2nc3ncccc3o2)c1)c1ccc(-c2cccc(Cl)c2Cl)o1,Potency,[1],"inconclusive: 25.1 µM [signal inhibitor, partial curve]"
COC(=O)c1c(SCC(=O)Nc2cccc(C(F)(F)F)c2)[nH]c2ccccc2c1=O,IkBa stabilization activation,[1],inconclusive: 1.35% [signal inhibitor]
CN(C)c1ncc2nc(-c3cn(C)c4ccccc34)c(=O)n(C[C@H]3CCCO3)c2n1,IkBa stabilization activation,[1],"inactive: -0.632% [at 11.4 µM, scaled: untreated 0%, proteasome inhibitor 100%]"
Cc1nn(-c2ccccc2)c2c1C1(C(=O)N(C)c3ccccc31)C(C#N)=C(N)O2 (stereo unspecified),IkBa stabilization activation,[1],inconclusive: 4.37% [signal inhibitor]
CCN(CC)S(=O)(=O)c1ccc2c(c1)N(CC(=O)N1CCN(c3cc(Cl)ccc3C)CC1)C(=O)CO2,IkBa stabilization activation,[1],inactive
O=C1Nc2ccc(S(=O)(=O)NCCC3=CCCCC3)c3cccc1c23,IkBa stabilization activation,[1],inconclusive: 3.25% [signal inhibitor]
CCc1ccccc1N1CC(c2nnc(NC(=O)c3ccco3)s2)CC1=O (stereo unspecified),IkBa stabilization activation,[1],inactive
C[C@H]1[C@H](O)[C@@H](C)C=CC=CC=CC=CC=CC=CC=C[C@H](O[C@@H]2O[C@@H](C)[C@H](O)[C@@H](N)[C@@H]2O)C[C@@H]2O[C@](O)(C[C@@H](O)C[C@@H](O)[C@@H](O)CC[C@@H](O)C[C@@H](O)CC(=O)O[C@H]1C)C[C@H](O)[C@H]2C(=O)O,IkBa stabilization activation,[1],"inactive: -0.369% [at 11.4 µM, scaled: untreated 0%, proteasome inhibitor 100%]"
CCOc1ccc(CNC(=O)C2CCN(C3=NS(=O)(=O)C(c4ccc(C)cc4)=C3CC)CC2)cc1,IkBa stabilization activation,[1],inconclusive: 1.91% [signal inhibitor]
CCN(CC)CC(=O)c1c[nH]c2ccccc12,IkBa stabilization activation,[1],inconclusive: 2.35% [signal inhibitor]
COc1ccccc1N1CSC2=C(C#N)C(c3ccc(SC)cc3)CC(=O)N2C1 (stereo unspecified),Potency,[1],"inconclusive: 5.01 µM [signal inhibitor, full curve]"
Cc1ccc(-c2nnn(CC(=O)N(Cc3cccs3)C(C(=O)NC(C)(C)C)c3ccc(C)o3)n2)o1 (stereo unspecified),IkBa stabilization activation,[1],inactive
CC1=C(C(=O)OC2CCCCCCC2)C(c2ccc(O)cc2)NC(=O)N1 (stereo unspecified),IkBa stabilization activation,[1],inconclusive: 2.89% [signal inhibitor]
OCc1cc([C@@H](O)CNCCCCCCOCCCCc2ccccc2)ccc1O,IkBa stabilization activation,[1],inconclusive: 0.514% [signal inhibitor]
same,IkBa stabilization activation,"at 57.1 µM (top of the series), proteasome inhibitor 100%",inactive: 6.15%
CCOC(=O)c1ccc(N2C(=O)c3n[nH]c(-c4cccs4)c3C2c2ccc(O)c(OC)c2)cc1 (stereo unspecified),IkBa stabilization activation,[1],inconclusive: -4.21% [signal inhibitor]
CCN(C(=O)c1cc2c(s1)-c1c(C)cccc1OC2)c1cc(C)ccc1C,Potency,[1],"inconclusive: 3.98 µM [signal inhibitor, full curve, poor fit]"
CCOc1ccc2oc(=O)cc(CN3CCN(c4ccc(OC)cc4)CC3)c2c1,IkBa stabilization activation,[1],inconclusive: -0.928% [signal inhibitor]
C[N+](C)(C)CC(=O)N/N=C\c1ccncc1,IkBa stabilization activation,[1],"inactive: 1.07% [at 11.4 µM, scaled: untreated 0%, proteasome inhibitor 100%]"
CCOc1cc(S(=O)(=O)n2cc(-c3ccc(F)cc3)c(N)n2)cc(OCC)c1OCC,IkBa stabilization activation,[1],inconclusive: 1.19% [signal inhibitor]
CCn1c(CC(=O)Nc2cccc(OC)c2)nnc1SCC(=O)N1CCN(c2ccccc2)CC1,IkBa stabilization activation,[1],inconclusive: 5.65% [signal inhibitor]
O=C(NC1CC(=O)N(c2ccccc2)C1)c1ccc(S(=O)(=O)N2CCOCC2)cc1 (stereo unspecified),IkBa stabilization activation,[1],inconclusive: -1.08% [signal inhibitor]
c1ccc(-c2cn(-c3ccccc3)c3ncnc(N4CCN(c5ccccc5)CC4)c23)cc1,IkBa stabilization activation,[1],inconclusive: -2.4% [signal inhibitor]
COc1ccc(OC)c(NC(=O)CSc2n[nH]c(-c3ccccc3Cl)n2)c1,IkBa stabilization activation,[1],inconclusive: 0.341% [signal inhibitor]
Cc1cc(C)cc(Oc2c(C(F)(F)F)oc3c(CN4CCCC(C)C4)c(O)ccc3c2=O)c1 (stereo unspecified),IkBa stabilization activation,[1],inactive
Cc1ccc(-n2nc(-c3ccc(N)cc3)cc2N)cc1,IkBa stabilization activation,[1],inactive
COc1ccccc1N1CCN(c2ccc3cc(S(=O)(=O)N4CCCCC4)ccc3n2)CC1,IkBa stabilization activation,[1],inconclusive: -1.85% [signal inhibitor]
O=C(NC1CCCC1)C(c1ccsc1)N(Cc1ccco1)C(=O)Cc1cccs1 (stereo unspecified),IkBa stabilization activation,[1],inconclusive: 7.12% [signal activator]
COc1cccc(-c2cncnc2NCc2cccnc2)c1,IkBa stabilization activation,[1],"inactive: 1.4% [at 11.4 µM, scaled: untreated 0%, proteasome inhibitor 100%]"
CC1CCN(C(=O)CSc2c3c(nc4cc(Cl)ccc24)CCCC3)CC1,IkBa stabilization activation,[1],inconclusive: 20.6% [signal inhibitor]
c1ccc(-c2oc3ncnc(NCCCn4ccnc4)c3c2-c2ccccc2)cc1,IkBa stabilization activation,[1],inconclusive: -2.8% [signal inhibitor]
COc1ccc(Br)c2c1-c1nc(NC(=O)c3cccc(C)c3)sc1C2,IkBa stabilization activation,[1],inconclusive: 20.1% [signal inhibitor]
CN(C)S(=O)(=O)c1ccc2c(c1)c(=O)c(C(=O)N1CCN(c3cccc(Cl)c3)CC1)cn2C,IkBa stabilization activation,[1],inconclusive: -1.02% [signal inhibitor]
FC(F)(F)c1cc(CN2CC3(CCNCC3)C2)cc(C(F)(F)F)c1,IkBa stabilization activation,[1],"inactive: -3.97% [at 11.4 µM, scaled: untreated 0%, proteasome inhibitor 100%]"
S=c1[nH]nc(COc2ccc(Cl)cc2)o1,Potency,[1],"inconclusive: 25.1 µM [signal inhibitor, partial curve]"
CCOCCCNC(=O)c1ccc2c(c1)OCO2,IkBa stabilization activation,[1],inactive
CCOc1ccccc1NC(=O)CSC1=Nc2ccccc2C2=NC(CC(=O)NC3CCCCC3)C(=O)N12 (stereo unspecified),IkBa stabilization activation,[1],inconclusive: 9.08% [signal inhibitor]
COC(=O)c1c(-c2cccs2)csc1NC(=O)CN1CCOCC1,IkBa stabilization activation,[1],inactive
COc1ccc(N2CCN(CCCNC(=O)Nc3ccccc3Cl)CC2)cc1,IkBa stabilization activation,[1],inactive
CCOc1ccc(CN2C(=O)c3ccccc3Sc3ccc(C(=O)N4CCN(C)CC4)cc32)cc1,IkBa stabilization activation,[1],inconclusive: -3.12% [signal inhibitor]
CCC(CC)C(=O)Nc1c(C(=O)N2CCN(c3ccccc3F)CC2)oc2ccccc12,IkBa stabilization activation,[1],inconclusive: -0.98% [signal inhibitor]
Cc1ccc2nc(NCc3ccco3)c(C=NCc3ccco3)c(=O)n2c1,IkBa stabilization activation,[1],inactive
Cc1oc(-c2ccccc2F)nc1CS(=O)(=O)CC(=O)N1CCN(c2cccc(C(F)(F)F)c2)CC1,IkBa stabilization activation,[1],inconclusive: 0.824% [signal inhibitor]
COc1ccc(-c2cc(C(F)(F)F)nc(N3CCN(c4ccccc4)CC3)n2)cc1OC,IkBa stabilization activation,[1],inactive
N#Cc1ccc(C(=O)Nc2ccc(Cl)c(-c3nc4cc(Cl)ccc4o3)c2)c(F)c1,IkBa stabilization activation,[1],inconclusive: 7.81% [signal inhibitor]
COc1cccc(C(=O)Nc2ccc(C)cc2)c1,IkBa stabilization activation,[1],inconclusive: 2.48% [signal inhibitor]
Cc1ccc(NC(=O)c2cccc(NC(=O)N3CCSc4ncccc43)c2)cc1Cl,IkBa stabilization activation,[1],inconclusive: 2.29% [signal inhibitor]
S=C(c1ccc(-c2ccc(Cl)c(Cl)c2)o1)N1CCOCC1,IkBa stabilization activation,[1],inactive
COc1ccc(N2CCN(C(=O)Cn3ncc4c3-c3cc(C)ccc3OC4)CC2)cc1,IkBa stabilization activation,[1],inconclusive: 1.07% [signal inhibitor]
COc1cc(OC)cc(C(=O)Nc2cc(-c3nc4ccccc4s3)ccc2OC)c1,IkBa stabilization activation,[1],inactive
COc1ccc(F)cc1S(=O)(=O)NCCc1csc(-c2ccc(Cl)cc2)n1,IkBa stabilization activation,[1],inconclusive: 1.87% [signal inhibitor]
